Assay results reported in the RNAGym collection of RNA variant scans (doi:10.1073/pnas.2313332121).
Variants at the floor of the assay are shown more often than the library holds them.

B1: TPR 5TU (parent)
chain: GGAUCUUCUCGAUCUAACAAAAAAGACAAAUCUGCCACAAAGCUUGAGAGCAUCUUCGGAUGCAGAGGCGGCAGCCUUCGGUGGCGCGAUAGCGCCAACGUUCUCAACUAUGACACGCAAAACGCGUGCUCCGUUGAAUGGAGUUUAUCAUG

Variants of: B1
Assay: polymerase ribozyme fitness, log enrichment relative to wild type (log ratio); higher = more active; in vitro selection for triplet polymerase activity
Summary of the method: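 The heterodimeric triplet polymerase ribozyme's subunits were each mutagenized into PCR-built libraries and transcribed. Every library was selected once, in triplicate, by annealing with a biotinylated primer, the partner subunit and triplets, incubating frozen at −7 °C, gel-excising extended constructs, capturing on streptavidin beads and running RT-PCR. Input and output libraries were Illumina-sequenced, with genotypes kept only at ≥10 input reads and ≥1 read per output. Fitness, from inverse-variance-weighted replicate averages, is the base-2 logarithm of genotype enrichment over wild-type enrichment.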

Variant	polymerase ribozyme fitness (log ratio)
GGUUCUUCUCGAUCUAACAACAAAGACAAAUCUGCCACAAAGCUUGAGAGCAUCUUCGGAUGCAGAGGAGGCAGCAUUCGGUGGCACGGUAGCGCCAACGUUCUCAACUAUGACACGCAAAGCGCGUGCUCCGUUGAAUGGAGUUUAUCAUG [A3U A21C C69A C76A G86A A89G A122G]	≤ -4.2
GGGUCUUCUCGAUCUAACAAAAAAGACAAAUCUGCCACAAAGCUUCAGAGCAUAUUCGGAUGCAGAGGCGGCAGCCUUCGGUGGCGCGAUAGCGCCAACGUUCUCAACUAUGACACGCAAAACGCGUGCUCCGUUGAAUGGAGUUCAUCAUG [A3G G46C C54A U146C]	-3.68
GGUUCUUCUCGAUCUAACAAUAAAGAAAAAUCUGCCACAAAGCAUGAGAGCAUCUUCGGAUGCAGAGGCGGCAGCCUUCGGUGGCGCGGUAGCACCAUCGUUCUCAACUAUGACACGCAAAACGCGUGCUCCGUUGAAUGGAGUUUAUCAUG [A3U A21U C27A U44A A89G G94A A98U]	≤ -4.2
GGUUCUUCUCGAUCUAACAAAAAGGACAAAUGUGCCACAAAGCUUGAGAGCAUCUUCGGAUGCAGAGGCGGCAGCCUUCGGUGGCGCGAUAGCGCCAACGUUCUCAACUAUGACACGCAAAACGCGUGCUCCGUUGAAUGGAGUUUAUCAUG [A3U A24G C32G]	-4.15
GGGUCUUCUCGAUCUAACAAAAAAGACAAAUCUGCCACAAAGCUUGAGAGCAUCUUCGGAUGCAGAGGCGGCAGCCUUCGGUAGCUCGAUAGCGCCAACGUUCUCAACUAUGACACGUAAAACGCGUGCUCCGUUGAAUGGAGUUUAUCAUG [A3G G83A G86U C118U]	-3.29
GGGUCUUCUCGAUCUAACAAAAAAGACAAAUCUGCCACAAAGCUUGAGAGCAUCUUCGGAUGCAAAUGCGGCAGCCUUCGGUGGCGCUAUAGCGCCAACGUUCUCAACUAUGACACGCAAAACGCGUGCUCCGUUCAACGGAAUUUAUCAUG [A3G G65A G67U G88U G136C U139C G143A]	≤ -4.2
GGUUCUUCUCGAUCUAACAAAAAAGACACAUCUGCCACAAAGCUUGAGAGCAUCUUCGGACGCAGAGGCGGCAGCCUUCGGUGGCGCGAUAGCGCCAACGUUCUCAACUAUGACACGCAAAACGCGUGCUCCGUUGAAUGGAGUUUAUCAUG [A3U A29C U61C]	≤ -4.2
GGGACUUCUCGAUCUAACAAAAAAGACAAAUCUGCCACAAAGCUUGAGAGCACCUUCGUAAGCAGAGGCGCCAGCCUUCGGUGGAGCGAUAGCGCCAACGUUCUCAACUAUGACACGCAAAACGCGUGCUCCGUUGAAUGGAGUUUAUCAUG [A3G U4A U53C G59U U61A G71C C85A]	≤ -4.2
GGGUCUUCUCAAUCUAACAAAAAAGAAAAAUCUGCCACAAAGCUUGAGCGCAUCUUCGCAUGCAGAGGCGGCAGCCUUCGGUGCCGCUAUAGCGCCAACGUUCUCAACUAUGACACGCAAAACGCGUGCUCCGUUGAAUGGAGUUUAUCAUG [A3G G11A C27A A49C G59C G84C G88U]	≤ -4.2
GGGUCUUCUCGAUCUAACAAAAAAGACAAAUCGGCCACAAAGCUUGAGAGCAACUUCAGAUGCAGAGGCGGCAGCCUUUGGUGGGGCGAUAGCGCCAACGGUCUCAACUAUGACACGCAAAACGCGUGCUCCGUUGAAUGGAGUUUAUCAUG [A3G U33G U53A G58A C79U C85G U101G]	≤ -4.2
GGGACUUCUUGAUCUAACAAAAAAGACAAGUCUGCCACAAAGCUUGAGAGCAUCUUCGGAUGCAGAGGCGGCAGCCUUAGGUGGCGCGAUAGCGCCAACGUUCUCAACUAUGACACGCAAAACGCGUGCUCCGUUGAAUGGAGUUUAUCAUG [A3G U4A C10U A30G C79A]	≤ -4.2
GGUUCUUCUCGAUCUAACAAACAAGACAAACCUGCCACAAAGCUUGAGAGCAUCUUCGGAAGCAGAGGCGGCAGCCUUCGGUGGCGCGAUAGCGCCAACGUUCUCAACUAUGACACGCAAAACGCGUGCUCCGUUGAAUGGAGUUUAUCAUG [A3U A22C U31C U61A]	-2.45
GGGUCUUCUCGAUCUAACAAAAAAGACAAAUGUGCAACAAAGCUUGAGAGCAUCUUCGGAUGCAGAGGCGGCAGCCUUCGGUGGCGCGAUAGCGCCAACGUUCUCAACUAUGACACGGAAAACGCGUGCUCCGUUGAAUGGAGUUAAUCAUG [A3G C32G C36A C118G U146A]	≤ -4.2
GGUUCUUCUCGAUCUAACAAAAGAGACAAAUCUGCCACAAAGCUUGAGAGCAUCUACGGAUGCAGAGGCGGCAGUCUUCGGUGGCGCGUUAGCGCCAACGUUCUCAACUAUGACACGCAAAACGCGUGCUCCGUUGAAUGGAGUUUAUCAUG [A3U A23G U56A C75U A89U]	≤ -4.2
GGGUCUUCUCGAUCUAACAAAAAAGACAAAUCUGCCACAAAGCUUGAGAGCAUCUUCGGAUGCAGAGGCGGCAGCCUUCGGUGGCGCGAUAGCGCCAACGUUCUCAACUAUGACAUGCAAAACACGUGCUCCGUUGAAUGGGGUUUAUCAUG [A3G C116U G124A A142G]	-2.6
GGUUCUUCUCGAUCUAACAAAAAAGACUAAUCUGCCACAACGCUUGAGAGCAUCUUCGGAUGCAGAGGCGGCUGCCUUGGGUGGCGCAAUAGCGCCAACGUUCUCAACUAUGACACGCAAAACGCGUGCUCCGUUGAAUGGAGUUUAUCAUG [A3U A28U A41C A73U C79G G88A]	≤ -4.2
GGUUCUUCUCGAUCUAACACAAAAGAUAAAUCUGCCACAACGCUUGAGAGCAUCUUCGGAUGCAGAGGGGGCAGCCUUCGGUGGCGCGACAGCGCCAACGUUCUGAACUAUGACACGCAAAACGCGUGCUCCGUUGAAUGGAGUUUAUCAUG [A3U A20C C27U A41C C69G U90C C105G]	≤ -4.2
GGGUCUUCUCGAUCUAACAAAAAAGACAAAUCUGCCAAAAAGCUUGAGAGCAUCUUCGGAUGCAGAGGCGGCAGCCUUCGGUGGCGCGAUAGCGCCAACGUUCUCAACUAUGACACGCAAAACCCGUGCUCCGGUUAAUGGAGUUGAUCAUG [A3G C38A G124C U134G G136U U146G]	≤ -4.2
GGGUCUUCUCGAUCUAACAAAAAAGACAAAUCUGCCACAAAGCUUGAGACCAUCUUCGGAUGCAGAGGCGGCAGCAUUCGGUGGCGCGAUAGCGCCAACGUUCUCAACUAUGACUCGCAAAACGCGUGCUGCGUUGAAUGGAGUUUAUCAUG [A3G G50C C76A A115U C131G]	≤ -4.2
